This passage reports AUC and IC50 results from the supplement of paper PMC4967469.

One may read the pIC50 as the negative decadic logarithm of the IC50, by convention in mol/L.

pIC50: −log10 of the molar value. A lower IC50 marks a more sensitive line; a limit (>, <) means that the fit lies beyond the doses tested. For AUC the same curve is integrated over the 256-fold range of doses and scaled to a fraction: 1 means no effect, lower means more sensitive. Where the top dose is marked as inferred, it was derived from the fitted curves, not read from the paper.

Compound in the assay: CCn1cc(-c2ccnc3[nH]c(-c4cccc(CN(C)C)c4)cc23)c(-c2ccc(NC(=O)N(C)C)cc2)n1 [GSK1070916]
As to the kind of experiment: Viability of human cancer cell lines after 72 h of drug (GDSC screen). Particulars: top dose inferred. As to the method: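 Human cancer cell lines in 384-well plates, medium with 10% serum, drug for 72 h over a 256-fold dose range (nine 2-fold or five 4-fold steps up to the top dose). Adherent lines were fixed and stained with the nucleic acid dye Syto60, suspension lines read with resazurin; signal relative to control wells, capped at 0 and 100%. One two-parameter sigmoid per drug and line, fitted in a mixed model over all curves with the slope shared within a line.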
As for “MFM-223 (breast, adherent, top dose 2.56 µM)”, the AUC worked out at 0.829 and the negative-log IC50 (pIC50) is 5.81.

“MG-63 (osteosarcoma, adherent, top dose 2.56 µM)”: the AUC worked out at 0.984 and the negative-log IC50 (pIC50) is under 5.59.

On to “MHH-ES-1 (Ewing sarcoma, adherent, top dose 2.56 µM)”, for which the AUC stood at 0.199 and the pIC50 was 7.68.

On to “MHH-NB-11 (neuroblastoma, adherent, top dose 2.56 µM)”, for which the AUC stood at 0.518 and the pIC50 was 6.74.

“MHH-PREB-1 (B-cell leukaemia, suspension, top dose 2.56 µM)”: the AUC turned out to be 0.989 and the pIC50 is under 5.59.

With “MIA-PaCa-2 (pancreas, adherent, top dose 2.56 µM)”, the AUC was 0.97 and the negative logarithm of the IC50 (pIC50) was under 5.59.

With “MKN1 (stomach, adherent, top dose 2.56 µM)”, the AUC came out at 0.824 and the pIC50 is 5.79.

“MKN28 (stomach, adherent, top dose 2.56 µM)”: the AUC came to 0.971 and the pIC50 was under 5.59.

Take “MKN45 (stomach, adherent, top dose 2.56 µM)”: the AUC is 0.937 and the negative logarithm of the IC50 (pIC50) was under 5.59.

As to “ML-1 (thyroid, adherent, top dose 2.56 µM)”, the AUC worked out at 0.926 and the pIC50 was under 5.59.

For the cell line “ML-2 (acute myeloid leukaemia, suspension, top dose 2.56 µM)”, the AUC worked out at 0.207 and the pIC50 was 7.60.

Regarding “MLMA (hairy cell leukaemia, semi-adherent, top dose 2.56 µM)”, the AUC stood at 0.89 and the pIC50 was under 5.59.

Consider “MMAC-SF (melanoma, adherent, top dose 2.56 µM)”, for which the AUC came out at 0.979 and the pIC50 is under 5.59.

For the cell line “MN-60 (B-cell leukaemia, suspension, top dose 2.56 µM)”, the AUC turned out to be 0.939 and the negative-log IC50 (pIC50) is under 5.59.

Turning to “MOLM-13 (acute myeloid leukaemia, suspension, top dose 2.56 µM)”, the AUC was 0.182 and the negative logarithm of the IC50 (pIC50) is 7.72.

Regarding “MOLP-8 (myeloma, suspension, top dose 2.56 µM)”, the AUC worked out at 0.368 and the pIC50 is 7.15.

For the cell line “MOLT-4 (lymphoblastic leukaemia, suspension, top dose 2.56 µM)”, the AUC was 0.138 and the pIC50 is 7.79.

In the case of “MOLT-13 (T-cell lymphoblastic leukaemia, suspension, top dose 2.56 µM)”, the AUC was 0.194 and the negative-log IC50 (pIC50) is 7.64.

As to “MONO-MAC-6 (acute myeloid leukaemia, suspension, top dose 2.56 µM)”, the AUC came to 0.404 and the pIC50 is 7.07.

As to “MPP-89 (mesothelioma, adherent, top dose 2.56 µM)”, the AUC worked out at 0.976 and the pIC50 is under 5.59.

Turning to “MRK-nu-1 (breast, suspension, top dose 2.56 µM)”, the AUC worked out at 0.99 and the pIC50 was under 5.59.

As to “MS751 (cervix, adherent, top dose 2.56 µM)”, the AUC was determined as 0.984 and the pIC50 was under 5.59.

For the cell line “MS-1 (small cell lung carcinoma, suspension, top dose 2.56 µM)”, the AUC amounted to 0.884 and the negative logarithm of the IC50 (pIC50) is 5.65.

For the cell line “MSTO-211H (mesothelioma, adherent, top dose 2.56 µM)”, the AUC turned out to be 0.988 and the negative-log IC50 (pIC50) is under 5.59.

In the case of “MZ1-PC (pancreas, adherent, top dose 2.56 µM)”, the AUC came to 0.69 and the pIC50 is 6.20.

As to “MZ2-MEL (melanoma, adherent, top dose 2.56 µM)”, the AUC came out at 0.94 and the pIC50 is under 5.59.

In the case of “MZ7-mel (melanoma, adherent, top dose 2.56 µM)”, the AUC came out at 0.967 and the pIC50 was under 5.59.
